Measurements taken from the supplement of paper PMC3334620.
The full ranking holds about 33,000 sequences; the median of “E-score (-0.5 to 0.5)” is about -0.054, and the highest 2% start at about 0.35. The list shows a part of the results.

The sequences below were run against T1, Stb5 (UniProt P38699) (assay: PBM E-score (8-mer binding enrichment) (E-score (-0.5 to 0.5)); higher = stronger / more preferred TF binding; most listed sequences are background and not binding sites). Conditions: protein concentration: 200 nM; construct: GST-full length.
T1 sequence: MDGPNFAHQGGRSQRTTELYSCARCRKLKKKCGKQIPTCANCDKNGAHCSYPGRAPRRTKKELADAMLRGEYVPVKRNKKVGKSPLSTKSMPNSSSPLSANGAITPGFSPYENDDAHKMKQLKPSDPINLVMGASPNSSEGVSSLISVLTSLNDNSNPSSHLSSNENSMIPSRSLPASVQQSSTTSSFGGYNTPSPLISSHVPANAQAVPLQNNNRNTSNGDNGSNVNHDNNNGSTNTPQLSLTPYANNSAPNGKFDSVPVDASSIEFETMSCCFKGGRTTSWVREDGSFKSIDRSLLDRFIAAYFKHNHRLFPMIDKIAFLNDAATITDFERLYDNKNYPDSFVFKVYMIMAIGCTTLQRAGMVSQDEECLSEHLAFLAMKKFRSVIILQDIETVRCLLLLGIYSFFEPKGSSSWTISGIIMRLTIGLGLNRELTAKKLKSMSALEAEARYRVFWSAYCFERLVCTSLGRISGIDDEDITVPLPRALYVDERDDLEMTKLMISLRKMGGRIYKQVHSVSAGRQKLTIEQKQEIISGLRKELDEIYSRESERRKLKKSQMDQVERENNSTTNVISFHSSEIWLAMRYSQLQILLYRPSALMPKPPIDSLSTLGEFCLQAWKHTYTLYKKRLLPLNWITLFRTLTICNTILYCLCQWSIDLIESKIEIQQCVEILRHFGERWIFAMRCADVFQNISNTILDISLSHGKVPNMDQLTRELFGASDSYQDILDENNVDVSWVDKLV
Procedure: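 Universal 'all 10-mer' protein binding microarrays (Agilent AMADID 015681) probed with GST-tagged S. cerevisiae TFs (full-length or DBD) made by in vitro transcription/translation (PURExpress), about 100-200 nM. Bound TF was detected with fluorescent anti-GST. Each ungapped 8-mer (which stands for itself and its reverse complement) is scored by the PBM enrichment score (E-score), a modified Wilcoxon-Mann-Whitney statistic from -0.5 to +0.5, computed with the Universal PBM Analysis Suite. Scale: above 0.35 generally sequence-specific binding.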

Sequence	PBM E-score
ACGACACC	0.148
CAGCTGCG	0.0512
CTATCGAA	-0.0224
ACGCGGAA	0.0896
AACCACCG	0.406
GTACTTCA	0.00797
ACCGTAGA	0.1
AAGGGCGG	0.338
CGTACACG	-0.0438
AGCACTCA	-0.186
CATCATCA	-0.0917
GACATTTA	0.242
CTACATTC	-0.109
GGAAAACC	-0.171
GCCCGTCA	0.244
ATTGGGAA	-0.0923
CTATTCCC	0.136
GACGTTCA	-0.138
GCGGCCCA	0.215
TGCTTTAA	0.0424
AATCCTGA	-0.254
CATGTTCA	-0.334
CCCTTACA	-0.0595
CCGAGTGC	0.133
CACGAATC	-0.0265

Sequence	PBM E-score
CGTATACA	-0.136
GAGCCCTA	-0.0868
ATCGTTCG	-0.0639
ATTAGTAA	0.174
GTTCTTGA	-0.228
GCGTCGAC	-0.12
CATCCATC	-0.172
CATGAGTC	-0.238
TAGAGCCA	-0.301
AATGAATC	-0.154
CACTTCTG	-0.0975
GCTACGAC	0.132
CACTAATC	0.129
AGCTGCTA	-0.207
CATTTTTA	0.183
CAGCGCGC	0.14
AACGACTC	-0.333
ACCGGCAG	0.277
CTGGAAAC	-0.182
GCTACACA	-0.166
AACCTAAA	0.0271
AGATGATA	-0.0731
CACACTTC	-0.124
CCCGTCAA	0.175
AGTAGACA	-0.0717

Sequence	PBM E-score
CATTGCCG	0.149
GAAGCAGA	-0.278
AAACAGCT	-0.127
GAAGCCAC	0.0166
GATGAATA	0.035
AGGTACGA	-0.0786
AGTGGGTG	-0.135
AACCCTGG	-0.284
CTTTTTGA	-0.162
CCTTGACA	-0.071
ACTTAGCC	0.00833
AATGTGTG	-0.103
CGCTGTTA	0.445
ACATATCT	0.0384
GTGTCGAA	-0.0704
CCACCACA	-0.0405
AACAAAGG	-0.0741
CCGACTTA	0.324
AGCAGGAG	-0.0573
ATTGTGTA	-0.0965
AGAGTCAG	-0.1
AGCGCCCC	-0.0902
CACGCTCG	-0.169
CTTTGTTA	0.0345
AGTGCAAA	-0.106

Sequence	PBM E-score
ACCCGTCA	0.226
ATTATGAC	0.103
CGGGACCC	0.111
CTTGAGGA	-0.186
CACGATCG	0.0415
AATGGGAC	-0.0748
GTGAGCAC	-0.0695
CAGGTGCA	-0.191
CAAATCGG	0.303
CAACATAA	-0.00782
ACCCTTAC	-0.0493
CGATAAAA	0.254
CCTCAGGC	-0.018
CTTTCAAC	-0.123
AACCTTGC	-0.0575
AGGGTTAG	-0.234
CGGACTCC	0.231
GTCGTCCA	-0.072
ACATATGA	-0.1
AAGACCGG	0.418
CGGTGAAC	0.177
ACGTCACA	-0.197
CAGCTAGG	-0.139
CACGTCTG	-0.156
CGATATAG	0.0794

Sequence	PBM E-score
GCGGAACA	0.238
GGGCGACC	-0.202
AAATACAC	-0.107
CAACTGCA	-0.355
CTCTTCAG	-0.0718
GAAGTGGC	-0.159
CCTACGGA	0.214
GCCGTTTA	0.212
CGTTTGTA	0.0345
ATGTTCAC	-0.207
AGGCGCTG	0.0509
CCGACATC	0.252
GAGAATCA	-0.104
TATCCGCA	0.174
GATGTCAA	0.017
ATTCCAGA	0.0258
CATGGGGA	-0.091
CATGCTCC	-0.216
AGTGCGGG	0.151
AGTACTAG	-0.307
TGGAAAAA	-0.00409
CGACCAAG	-0.148
CTTTTGAC	-0.0853
AGAACAGA	-0.0903
AGGGAATA	0.0674

Sequence	PBM E-score
ATGCATGG	-0.159
TATATATA	0.201
AGACCTCC	-0.00725
GTAAGTTA	-0.0371
ATCTGGTA	-0.0778
CAAGCATC	-0.119
ACGTACGC	-0.121
ACAAGGAC	-0.364
CGTTATTA	0.196
CTCGTCTC	-0.254
CCTTGATC	-0.0818
CGCCCCAG	-0.0597
ACATGAAG	2e-05
CATCATTA	-0.103
CACAATGG	-0.24
GAGCATGC	-0.261
AGCATATA	0.0876
AGCGGCGG	0.401
TTATATAA	0.137
CTCTACAA	-0.18
GGGTCAGA	0.0485
AGATACAA	-0.086
CACCGAGA	0.151
CCAACTGC	0.0151
AAGCGGGA	0.266

Sequence	PBM E-score
ACAGCGGA	0.301
AACCGCAC	0.00707
GCACATGC	-0.105
GATTAGAC	-0.0346
CCGGATTA	0.241
AGCGGACC	0.359
GGTGCTAC	0.235
ATACTCAC	-0.0625
ATGAGGGG	-0.124
CGTACATC	-0.0222
GAGTAAGC	-0.205
ACACATCG	-0.211
CATAAACG	0.122
ATAACGGC	0.31
CTGTCGCA	0.00446
ACCAGAAT	-0.0325
ATTGCTTA	-0.0596
ATTTGCAC	-0.273
CAGCTTAG	-0.121
ACCCGCAT	0.112
ATTTTGTG	0.0555
GGCGTCAA	0.267
GCCCGCCA	0.284
CCACAGCG	-0.00683
CGCGGCCA	0.165

Sequence	PBM E-score
AGAACTTG	-0.183
AATGGCTG	-0.207
GTAGCTTA	-0.107
CATCCTCC	0.00174
ATACTGTG	-0.133
ATTACTCG	-0.0965
ATCATTAC	-0.113
ATAGTCGC	0.119
CAACCCTA	-0.358
CGTGGCTC	-0.258
ATGTGAGA	-0.175
ACCACTCA	-0.153
CCGCATTC	0.0927
CCTCGCCC	-0.219
AAGCCAGC	-0.303
CCGGCCTA	0.21
CTTCTATC	-0.12
GTTGATTA	0.0519
CAGCACAA	-0.123
ACGGGGCT	0.366
CTAATCAG	-0.112
TATCTACA	-0.197
CCGCCATC	0.185
GAGGTAAC	0.135
ACAAGAAC	-0.0649

Sequence	PBM E-score
ACAAGCAG	-0.155
CACTTGCG	-0.0879
ATGTGCGC	0.135
AGGCGTAG	-0.00577
CCCGACCA	0.326
CGCTCGGC	0.243
CAGTGGAG	-0.135
CGGCTTCA	0.259
GTCCGCAC	0.324
CAATTGCA	-0.121
GATGAGCA	-0.148
ACGGACGT	0.308
CACAAAGC	-0.103
AATAGAAA	-0.0354
AGTCCCAT	0.00895
TCTGTCCA	0.0453
CGGATTTC	0.223
CAGGAGTA	-0.181
AGAGTTTC	-0.164
GAACCCTA	-0.181
AAATCTCG	-0.0665
TCAGGGGA	-0.254
CCCCGCAA	0.284
CCACCTTC	-0.199
GGTTCGAA	-0.0855

Sequence	PBM E-score
CAGTGAGG	-0.233
CCTCTCAA	-0.0888
CCCTTCCA	-0.107
ACGATATC	-0.0544
GATTGAAC	0.0537
ACCCAACT	-0.263
AATTGTTA	0.0529
CAATAAAC	0.135
CAAAAACA	-0.116
AATGCTCG	-0.221
CCGTGTTC	0.137
TACTCAAA	-0.199
CCAGCCTA	-0.226
ACCGATCA	0.293
ACTTTGCA	-0.119
ATTGGTAC	0.0151
AACGAATC	-0.0815
TACATGCA	-0.019
TGCGGAAA	0.0033
AGTCGCGG	0.203
CACTAGAG	-0.0417
ACGTTACA	-0.246
TCTCGAAA	-0.206
GGTGGAAC	-0.0383
CGGGCTAG	0.135

Sequence	PBM E-score
AACAGCGG	0.366
AGCTTTGC	-0.13
AAGTCCCG	0.385
AAATTGTC	0.143
ACGAGAAA	-0.0778
AAGTTAAT	-0.067
ACATATCC	0.154
ACTGTTCC	-0.141
GAGCCTCC	-0.123
TAGATGCA	-0.176
CGGGGCTC	0.259
AGGTAAAT	-0.00248
GGTGATAA	0.415
CGAGGGGA	-0.104
CGTTAATC	0.238
ATCCCCCG	0.292
CTAAACAA	-0.252
ACCAACCT	-0.149
GCTATTAC	0.128
GGTCAGTA	-0.0306
GGATGCCA	-0.226
GGGAATAC	0.302
CCACTTGA	-0.00654
ACAGTCTA	-0.0348
TAGCACTA	-0.246

Sequence	PBM E-score
TTAATCAA	-0.0616
GTACTATA	0.0937
CCGAGACC	0.102
CAGGAAAC	-0.116
AACTTACG	-0.0554
AAGTTGAC	-0.145
ACAGCGCT	0.22
GGAGCAAC	-0.072
CATCACCC	0.105
GTGAAAAC	0.0712
AGCGAAGC	-0.00055
CAAAAGCA	-0.198
AAATCCGG	0.376
GGGAAACC	-0.071
GAACCGAA	0.0136
AACACCCT	-0.128
ACAGATGA	-0.234
AAACCAGA	-0.163
ACGGGGAA	0.252
AGCGATGC	-0.112
ATTGGTAA	-0.127
GCGTGGCC	-0.159
AGAATCAT	-0.352
ACAAGTGC	-0.12
CTCGAGCA	-0.111

Sequence	PBM E-score
CTTCATCC	-0.149
CTAAATGA	-0.0107
CCGCGGGC	0.335
AAGCCCTC	-0.212
TCATAAAA	0.0474
ACACATAC	-0.0739
AAAGTGGT	-0.2
ATCAAGCC	-0.0665
CAAAACGG	0.174
AAACCGAC	0.222
GCTCTTCC	-0.0228
CCTAACCG	0.0522
ATCTCTGA	-0.172
ATTCATCG	0.0533
ACACTGAG	-0.202
CGTGCCGC	0.249
ACTTGAAG	-0.228
CAGAAACA	-0.147
GCAAACTA	-0.229
AATCCGAT	0.273
CCAGTGTC	-0.136
GGACTGAA	0.0173
ACGGAATG	-0.0673
ACACCTAA	-0.0437
AGCGGTTC	0.0808

Sequence	PBM E-score
CAGTCCGA	0.273
CCTGCCCA	-0.218
CCGTGGAG	0.212
CTGTAAAG	-0.125
CATGCGAA	-0.0641
CCCTCATC	-0.234
CCTCGCAG	-0.138
ACGCCAAT	-0.0245
ATTGTGAG	0.022
AATAGACG	-0.0169
ATCGTCAG	-0.181
ATCACTGA	-0.105
CTACTGCA	-0.304
CAGTCAGG	-0.29
CGCCTGTC	-0.0556
CAAGAGAG	-0.209
GAAATATA	0.222
TAGATACA	-0.231
AAGGCGTC	-0.106
